Results: PMC10009644, “Gene-repressing epigenetic reader EED unexpectedly enhances cyclinD1 gene activation” (Molecular Therapy. Nucleic Acids, 2023)

Biological target: T1, FLAG-tagged full-length EED (UniProt O75530 1-441)
T1 construct: EED, full-length, including the N terminus (NT, residues 1-80) and seven WD repeats; also called FLAG-EED; Lenti-FLAG-EED; source: HEK293 cells (HEK293A in the legend), transfected, in lysate
Assay: co-IP; HEK293 cells transfected with HA- and FLAG-tagged constructs; lysed in Pierce IP Lysis Buffer; IP with anti-FLAG (anti-DYKDDDDK magnetic agarose, 4°C overnight) or anti-HA antibody, washed 3x with cold PBS, immunoblot for the other tag
Conditions: partners not purified

T1 sequence (O75530 whole entry, the tested form may be a part): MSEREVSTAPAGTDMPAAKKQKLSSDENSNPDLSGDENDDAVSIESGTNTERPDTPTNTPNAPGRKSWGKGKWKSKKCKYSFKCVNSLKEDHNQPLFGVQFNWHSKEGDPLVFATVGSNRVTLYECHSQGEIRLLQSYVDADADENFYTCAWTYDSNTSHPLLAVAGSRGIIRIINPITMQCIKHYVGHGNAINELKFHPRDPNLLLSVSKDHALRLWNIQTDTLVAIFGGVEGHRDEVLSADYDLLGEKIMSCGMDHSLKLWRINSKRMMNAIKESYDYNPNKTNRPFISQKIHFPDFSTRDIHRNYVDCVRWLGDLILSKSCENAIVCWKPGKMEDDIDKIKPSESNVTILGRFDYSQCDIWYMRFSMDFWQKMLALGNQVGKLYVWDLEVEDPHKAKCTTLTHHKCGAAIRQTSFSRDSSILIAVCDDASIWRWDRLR

B1: HA-tagged STAT3 (signal transducer and activator of transcription 3) (natural protein)
chain: not shown
notes: The plasmid is named Lenti-HA-STAT3-GFP; also called HA-STAT3; Lenti-HA-STAT3-GFP; source: HEK293 cells, transfected, in lysate
- fold over background control (coIP): 30 fold
